Experimental data from the supplement of paper PMC11741623.
This is one part of the list. Interaction screen of human proteins with wild-type SARS-CoV-2 proteins by split-DHFR complementation in yeast, 1 µg/mL methotrexate. Value = fitness of the pair (three or more lineages) minus that of the viral protein without a human partner, on a scale set by negative (0) and fused positive (1) controls, mean of up to three cultures; higher = more likely to interact. Active = false discovery rate below 0.05 (one-sided t-test) in at least one culture. Nearly all pairs are not hits, and differences among them are mostly noise (correlation between cultures about 0.3); most hits were seen in one culture only. Human sequences are the Swiss-Prot entries looked up by gene name; the clone may be another isoform. NSP2 values were corrected by the authors for a growth advantage. Listed are human proteins with a hit and a random twelfth of the others.

Key:
Experiment in all cases: yeast fitness gain over the viral ORF with no human partner (scaled fitness); higher = more likely to interact
SARS-CoV-2 N = molecular target: SARS-CoV-2 N
Experimental: (§1)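 Split mouse DHFR complementation in pooled diploid yeast: human ORFeome clones carry one fragment and viral ORFs the other; barcoded lineages compete in 1 µg/mL methotrexate and fitness is read by barcode sequencing in up to three cultures.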

SARS-CoV-2 NSP14 = molecular target: SARS-CoV-2 NSP14
Experimental: as §1

SARS-CoV-2 NSP16 = molecular target: SARS-CoV-2 NSP16
Experimental: as §1

SARS-CoV-2 NSP6 = molecular target: SARS-CoV-2 NSP6
Experimental: as §1

SARS-CoV-2 NSP9 = molecular target: SARS-CoV-2 NSP9
Experimental: as §1

SARS-CoV-2 ORF3A = molecular target: SARS-CoV-2 ORF3A
Experimental: as §1

SARS-CoV-2 NSP4 = molecular target: SARS-CoV-2 NSP4
Experimental: as §1

SARS-CoV-2 NSP5 = molecular target: SARS-CoV-2 NSP5
Experimental: as §1

SARS-CoV-2 NSP7 = molecular target: SARS-CoV-2 NSP7
Experimental: as §1

SARS-CoV-2 ORF3B = molecular target: SARS-CoV-2 ORF3B
Experimental: as §1

SARS-CoV-2 ORF6 = molecular target: SARS-CoV-2 ORF6
Experimental: as §1

SARS-CoV-2 NSP10 = molecular target: SARS-CoV-2 NSP10
Experimental: as §1

SARS-CoV-2 NSP12 = molecular target: SARS-CoV-2 NSP12
Experimental: as §1

SARS-CoV-2 NSP13 = molecular target: SARS-CoV-2 NSP13
Experimental: as §1

SARS-CoV-2 NSP15 = molecular target: SARS-CoV-2 NSP15
Experimental: as §1

SARS-CoV-2 NSP2 = molecular target: SARS-CoV-2 NSP2
Experimental: as §1

SARS-CoV-2 NSP8 = molecular target: SARS-CoV-2 NSP8
Experimental: as §1

SARS-CoV-2 ORF10 = molecular target: SARS-CoV-2 ORF10
Experimental: as §1

SARS-CoV-2 ORF7A = molecular target: SARS-CoV-2 ORF7A
Experimental: as §1

SARS-CoV-2 ORF7B = molecular target: SARS-CoV-2 ORF7B
Experimental: as §1

SARS-CoV-2 ORF8 = molecular target: SARS-CoV-2 ORF8
Experimental: as §1

SARS-CoV-2 ORF9B = molecular target: SARS-CoV-2 ORF9B
Experimental: as §1

SARS-CoV-2 S = molecular target: SARS-CoV-2 S
Experimental: as §1

SARS-CoV-2 NSP1 = molecular target: SARS-CoV-2 NSP1
Experimental: as §1

[1] = molecular target: SARS-CoV-2 ORF9Bwu (the 73-codon ORF)
Experimental: as §1

Measured: yeast fitness gain

B1: PRSS2, P07478 (protein)
chain: MNLLLILTFVAAAVAAPFDDDDKIVGGYICEENSVPYQVSLNSGYHFCGGSLISEQWVVSAGHCYKSRIQVRLGEHNIEVLEGNEQFINAAKIIRHPKYNSRTLDNDILLIKLSSPAVINSRVSAISLPTAPPAAGTESLISGWGNTLSSGADYPDELQCLDAPVLSQAECEASYPGKITNNMFCVGFLEGGKDSCQGDSGGPVVSNGELQGIVSWGYGCAQKNRPGVYTKVYNYVDWIKDTIAANS
inactive: SARS-CoV-2 N 0.166 | SARS-CoV-2 NSP14 = -0.0869 | SARS-CoV-2 NSP16 = 0.0145 | SARS-CoV-2 NSP6 = 0.0577 | SARS-CoV-2 NSP9 = -0.0268 | SARS-CoV-2 ORF3A 0.00355

B2: FA2H, Q7L5A8 (protein)
chain: MAPAPPPAASFSPSEVQRRLAAGACWVRRGARLYDLSSFVRHHPGGEQLLRARAGQDISADLDGPPHRHSANARRWLEQYYVGELRGEQQGSMENEPVALEETQKTDPAMEPRFKVVDWDKDLVDWRKPLLWQVGHLGEKYDEWVHQPVTRPIRLFHSDLIEGLSKTVWYSVPIIWVPLVLYLSWSYYRTFAQGNVRLFTSFTTEYTVAVPKSMFPGLFMLGTFLWSLIEYLIHRFLFHMKPPSDSYYLIMLHFVMHGQHHKAPFDGSRLVFPPVPASLVIGVFYLCMQLILPEAVGGTVFAGGLLGYVLYDMTHYYLHFGSPHKGSYLYSLKAHHVKHHFAHQKSGFGISTKLWDYCFHTLTPEKPHLKTQ
inactive: SARS-CoV-2 N -0.0528 | SARS-CoV-2 NSP14 = 0.0807 | SARS-CoV-2 NSP4 = 0.138 | SARS-CoV-2 NSP9 = 0.0631 | SARS-CoV-2 ORF3A 0.0951

B3: TMC6, Q7Z403 (protein)
chain: MAQPLAFILDVPETPGDQGQGPSPYDESEVHDSFQQLIQEQSQCTAQEGLELQQREREVTGSSQQTLWRPEGTQSTATLRILASMPSRTIGRSRGAIISQYYNRTVQLRCRSSRPLLGNFVRSAWPSLRLYDLELDPTALEEEEKQSLLVKELQSLAVAQRDHMLRGMPLSLAEKRSLREKSRTPRGKWRGQPGSGGVCSCCGRLRYACVLALHSLGLALLSALQALMPWRYALKRIGGQFGSSVLSYFLFLKTLLAFNALLLLLLVAFIMGPQVAFPPALPGPAPVCTGLELLTGAGCFTHTVMYYGHYSNATLNQPCGSPLDGSQCTPRVGGLPYNMPLAYLSTVGVSFFITCITLVYSMAHSFGESYRVGSTSGIHAITVFCSWDYKVTQKRASRLQQDNIRTRLKELLAEWQLRHSPRSVCGRLRQAAVLGLVWLLCLGTALGCAVAVHVFSEFMIQSPEAAGQEAVLLVLPLVVGLLNLGAPYLCRVLAALEPHDSPVLEVYVAICRNLILKLAILGTLCYHWLGRRVGVLQGQCWEDFVGQELYRFLVMDFVLMLLDTLFGELVWRIISEKKLKRRRKPEFDIARNVLELIYGQTLTWLGVLFSPLLPAVQIIKLLLVFYVKKTSLLANCQAPRRPWLASHMSTVFLTLLCFPAFLGAAVFLCYAVWQVKPSSTCGPFRTLDTMYEAGRVWVRHLEAAGPRVSWLPWVHRYLMENTFFVFLVSALLLAVIYLNIQVVRGQRKVICLLKEQISNEGEDKIFLINKLHSIYERKEREERSRVGTTEEAAAPPALLTDEQDA
inactive: SARS-CoV-2 N -0.0294 | SARS-CoV-2 NSP16 = 0.00736 | SARS-CoV-2 NSP5 = -0.0091 | SARS-CoV-2 NSP7 = -0.1 | SARS-CoV-2 ORF3B -0.0539 | SARS-CoV-2 ORF6 = -0.0584

B4: ACOT13, Q9NPJ3 (protein)
chain: MTSMTQSLREVIKAMTKARNFERVLGKITLVSAAPGKVICEMKVEEEHTNAIGTLHGGLTATLVDNISTMALLCTERGAPGVSVDMNITYMSPAKLGEDIVITAHVLKQGKTLAFTSVDLTNKATGKLIAQGRHTKHLGN
inactive: SARS-CoV-2 N -0.0359 | SARS-CoV-2 NSP10 = -0.0143 | SARS-CoV-2 NSP12 = -0.0866 | SARS-CoV-2 NSP13 = -0.11 | SARS-CoV-2 NSP15 = -0.0136 | SARS-CoV-2 NSP16 = -0.371 | SARS-CoV-2 NSP2 = -0.171 | SARS-CoV-2 NSP5 = 0.0102 | SARS-CoV-2 NSP7 = -0.192 | SARS-CoV-2 NSP8 = 0.00777 | SARS-CoV-2 ORF10 = -0.0484 | SARS-CoV-2 ORF3B -0.0434 | SARS-CoV-2 ORF6 = 0.0339 | SARS-CoV-2 ORF7A 0.034 | SARS-CoV-2 ORF7B 0.0951 | SARS-CoV-2 ORF8 = 0.0347 | SARS-CoV-2 ORF9B -0.0943 | SARS-CoV-2 S -0.461

B5: HLA-DPB1, P04440 (protein)
chain: MMVLQVSAAPRTVALTALLMVLLTSVVQGRATPENYLFQGRQECYAFNGTQRFLERYIYNREEFARFDSDVGEFRAVTELGRPAAEYWNSQKDILEEKRAVPDRMCRHNYELGGPMTLQRRVQPRVNVSPSKKGPLQHHNLLVCHVTDFYPGSIQVRWFLNGQEETAGVVSTNLIRNGDWTFQILVMLEMTPQQGDVYTCQVEHTSLDSPVTVEWKAQSDSARSKTLTGAGGFVLGLIICGVGIFMHRRSKKVQRGSA
inactive: SARS-CoV-2 N -0.139 | SARS-CoV-2 NSP1 = 0.0761 | SARS-CoV-2 NSP16 = 0.128 | SARS-CoV-2 NSP7 = -0.0758 | SARS-CoV-2 NSP8 = 0.0525 | SARS-CoV-2 ORF3A 0.0522 | SARS-CoV-2 ORF7A -0.0359 | SARS-CoV-2 ORF8 = 0.0332 | [1] -0.0968

B6: CHCHD2, Q9Y6H1 (protein)
chain: MPRGSRSRTSRMAPPASRAPQMRAAPRPAPVAQPPAAAPPSAVGSSAAAPRQPGLMAQMATTAAGVAVGSAVGHTLGHAITGGFSGGSNAEPARPDITYQEPQGTQPAQQQQPCLYEIKQFLECAQNQGDIKLCEGFNEVLKQCRLANGLA
inactive: SARS-CoV-2 N 0.0844 | SARS-CoV-2 NSP14 = -0.177 | SARS-CoV-2 NSP15 = -0.00931 | SARS-CoV-2 NSP16 = 0.0379 | SARS-CoV-2 NSP4 = 0.146 | SARS-CoV-2 NSP5 = 0.0327 | SARS-CoV-2 NSP7 = -0.0588 | SARS-CoV-2 NSP8 = 0.0816 | SARS-CoV-2 NSP9 = 0.189 | SARS-CoV-2 ORF10 = 0.0323 | SARS-CoV-2 ORF3A -0.0892 | SARS-CoV-2 ORF6 = 0.0218 | SARS-CoV-2 ORF7A 0.103 | SARS-CoV-2 ORF9B 0.0134 | [1] -0.0632
